# Reference: the supplement of paper PMC3334620
# In all, about 33,000 sequences were measured (“E-score (-0.5 to 0.5)”: median about -0.04, highest 2% from about 0.36 on). This is one part of the list.
# Molecular target: T1, Hmlalpha2 (UniProt P0CY09)
# T1 sequence: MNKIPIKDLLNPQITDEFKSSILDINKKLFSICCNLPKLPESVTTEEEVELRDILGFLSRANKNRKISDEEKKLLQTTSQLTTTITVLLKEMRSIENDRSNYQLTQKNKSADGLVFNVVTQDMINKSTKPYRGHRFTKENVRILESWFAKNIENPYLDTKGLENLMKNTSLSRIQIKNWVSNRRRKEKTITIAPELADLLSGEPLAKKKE
# Assay: PBM E-score (8-mer binding enrichment) (E-score (-0.5 to 0.5)); higher = stronger / more preferred TF binding; most listed sequences are background and not binding sites
# Conditions: protein concentration: 200 nM; construct: GST-full length
# Description: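 Universal 'all 10-mer' protein binding microarrays (Agilent AMADID 015681) probed with GST-tagged S. cerevisiae TFs (full-length or DBD) made by in vitro transcription/translation (PURExpress), about 100-200 nM. Bound TF was detected with fluorescent anti-GST. Each ungapped 8-mer (which stands for itself and its reverse complement) is scored by the PBM enrichment score (E-score), a modified Wilcoxon-Mann-Whitney statistic from -0.5 to +0.5, computed with the Universal PBM Analysis Suite. Scale: above 0.35 generally sequence-specific binding.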
row,Sequence,PBM E-score
1,GCACATAC,-0.0597
2,ACGTCTCA,0.0957
3,CTGGTCGA,-0.258
4,AATTCGAA,0.0227
5,GATAGTTA,0.0121
6,CTAGCTCA,-0.0217
7,AGTATGCC,-0.0836
8,CATGGATC,-0.13
9,AGGAGCAA,-0.297
10,AAACATCA,0.278
11,AGGTAGGG,-0.236
12,GACCTTGA,-0.0898
13,AGACGTTA,0.101
14,AGAATTCC,-0.12
15,ACACTTGG,-0.121
16,GGTGCCAA,-0.0608
17,ACTTCGAG,-0.109
18,ATCGGCTC,0.0259
19,AAGGATGA,0.0106
20,CATGCACG,0.181
21,CACTATTC,0.0491
22,AAGAGATG,-0.0147
23,CTGGACCA,-0.101
24,AAGTTCGG,-0.0732
25,TGTCAGAA,0.109

row,Sequence,PBM E-score
1,GCTACAAA,0.0715
2,ATGCAACC,-0.0909
3,ACGTTGAA,0.186
4,CGAGAATC,-0.0327
5,ATCGACCA,-0.177
6,ACACAATC,0.349
7,GGATTAAC,0.198
8,CCCGCCTA,-0.0214
9,AAGCCCGA,-0.159
10,CGTCTAGC,0.0382
11,AATAAGAC,0.0589
12,ATGATATC,-0.0185
13,CGCCGCTC,-0.135
14,ATGAGCCA,-0.0144
15,CCCCACGC,-0.411
16,AGGACTCG,-0.0869
17,GACAAATA,0.161
18,CAGGGATC,-0.28
19,ACCCGCAC,-0.246
20,TGATTGCA,0.134
21,AAATCCCG,-0.294
22,AGGATTGC,-0.148
23,CAGACGGG,-0.25
24,CACAGGGC,-0.0847
25,CACGGCAA,0.0473

row,Sequence,PBM E-score
1,AACATCAG,0.214
2,TACGGAAA,-0.11
3,CGTGCCCA,-0.162
4,AAATGGTC,-0.0885
5,TACCGACA,-0.00492
6,ATCTCAGC,-0.107
7,CGCATTCC,-0.284
8,AAAGCCAT,0.0384
9,GTGAGTGA,-0.0437
10,ACCCTAAC,0.0443
11,GCCAAAGC,-0.326
12,AATGATAG,0.0254
13,ATCGTTTG,0.0517
14,GACTACAC,0.362
15,ATCGCAGA,-0.00108
16,ACTAAGCG,-0.116
17,CACGGATC,0.0909
18,ACCTAAAT,0.00256
19,CTAACTTA,0.151
20,GCACCTGC,-0.236
21,ATAGTGTG,0.0162
22,GAACCAGC,-0.0938
23,GGTCAGGA,-0.271
24,CTTCCTAC,-0.169
25,GGATAGCA,-0.128

row,Sequence,PBM E-score
1,CTGTTAGA,0.0574
2,GGGTCTAC,-0.0437
3,CAGGCAAG,-0.112
4,CGCCGCCC,-0.329
5,CTGCAGCA,-0.00896
6,CTTCAGTA,-0.0693
7,TAAAACCA,0.189
8,GCATGCAA,0.133
9,ACGCGCTA,0.288
10,ATCTGCGC,-0.0447
11,CCAGGTCG,-0.0766
12,AAGGTAGG,-0.132
13,CGATCATA,0.0505
14,GAGGAAAA,-0.174
15,TGGTGAAA,-0.0269
16,GGACGCCC,-0.202
17,CAGGTCAA,-0.0762
18,AAACACTG,0.154
19,AACGGTCT,-0.111
20,AGTGATTG,-0.0798
21,ACGAGTGG,-0.245
22,CCGGTGGA,-0.259
23,ACGTCGTA,0.171
24,ATTCTAGA,-0.033
25,GCAAGACA,-0.111

row,Sequence,PBM E-score
1,CTGTCGAC,0.0636
2,GTTAATAA,0.318
3,CCACGGCG,-0.0275
4,TGGCCCAA,-0.196
5,CCACTCTC,-0.183
6,AGGCTCGA,-0.102
7,GGGCAGCA,-0.141
8,CCGACCAA,0.0583
9,AGCCCATC,-0.236
10,ACGACACT,0.0474
11,ACAGTCGC,-0.125
12,ACTATCTC,-0.177
13,CGTATGTC,0.131
14,AAGTTAAC,0.303
15,CAACTCTC,-0.121
16,CCAATCCC,-0.265
17,CACCATAC,-0.147
18,GTTGACGA,0.103
19,ATAAATTA,0.314
20,ACCAGTCA,-0.0542
21,CAGTGCAA,-0.0307
22,GTTTCTAA,0.146
23,TACACCCA,0.159
24,CAAATTTG,-0.0243
25,GTTTACTA,0.356

row,Sequence,PBM E-score
1,GGCGTTTA,0.118
2,ATGTTGAC,0.356
3,CAGGGGGA,-0.312
4,GAGTCTAC,-0.0298
5,CTATCAAC,0.212
6,GCTTCCCA,-0.268
7,TTAATGAA,0.221
8,CTATGCTA,0.201
9,AAAGCTTC,-0.0159
10,ATATCGAT,0.00945
11,GGACATCC,-0.25
12,CCTACACG,0.393
13,CCTTGCGC,-0.203
14,CCAAAGGG,-0.28
15,ACAGCAGA,0.103
16,ACACTGTC,0.12
17,ACGAAGAT,0.0929
18,GCGGAGCA,-0.306
19,AAGCACTC,-0.0974
20,ACATCTTA,0.106
21,ACTCGTCT,0.0315
22,AATTTCAC,0.0769
23,CGCATAGC,-0.0965
24,CTATTGGC,-0.145
25,CGAGGGAA,-0.168

row,Sequence,PBM E-score
1,GGGAACAA,0.00697
2,GAGTGAGC,-0.106
3,AAGGTCAG,-0.105
4,AGTCCGCG,-0.00885
5,TCGGGGAA,-0.00686
6,CCCACGAC,-0.214
7,CGGGTTAG,-0.176
8,CCAACTCC,-0.119
9,AATTGAGC,-0.0316
10,AAGGCTAG,-0.0575
11,CGTTGGCC,-0.0166
12,ACCCTGTA,0.213
13,ACTGTACT,-0.159
14,ATCATGTC,0.351
15,ATAATAGG,0.101
16,CTCTATTA,-0.0158
17,CAGAGGGG,-0.319
18,CGTTACAG,-0.0046
19,GTTACACA,0.435
20,AGGGTTCA,0.0416
21,CTATTTTA,0.112
22,ATCGTTAA,0.157
